# Results published in the supplement of paper PMC3334620.
# Over roughly 33,000 sequences, “E-score (-0.5 to 0.5)” has its median near -0.021; the highest 2% begin near 0.32. Some of the results follow.
# Target: T1, Zap1 (UniProt P47043)
# T1 sequence: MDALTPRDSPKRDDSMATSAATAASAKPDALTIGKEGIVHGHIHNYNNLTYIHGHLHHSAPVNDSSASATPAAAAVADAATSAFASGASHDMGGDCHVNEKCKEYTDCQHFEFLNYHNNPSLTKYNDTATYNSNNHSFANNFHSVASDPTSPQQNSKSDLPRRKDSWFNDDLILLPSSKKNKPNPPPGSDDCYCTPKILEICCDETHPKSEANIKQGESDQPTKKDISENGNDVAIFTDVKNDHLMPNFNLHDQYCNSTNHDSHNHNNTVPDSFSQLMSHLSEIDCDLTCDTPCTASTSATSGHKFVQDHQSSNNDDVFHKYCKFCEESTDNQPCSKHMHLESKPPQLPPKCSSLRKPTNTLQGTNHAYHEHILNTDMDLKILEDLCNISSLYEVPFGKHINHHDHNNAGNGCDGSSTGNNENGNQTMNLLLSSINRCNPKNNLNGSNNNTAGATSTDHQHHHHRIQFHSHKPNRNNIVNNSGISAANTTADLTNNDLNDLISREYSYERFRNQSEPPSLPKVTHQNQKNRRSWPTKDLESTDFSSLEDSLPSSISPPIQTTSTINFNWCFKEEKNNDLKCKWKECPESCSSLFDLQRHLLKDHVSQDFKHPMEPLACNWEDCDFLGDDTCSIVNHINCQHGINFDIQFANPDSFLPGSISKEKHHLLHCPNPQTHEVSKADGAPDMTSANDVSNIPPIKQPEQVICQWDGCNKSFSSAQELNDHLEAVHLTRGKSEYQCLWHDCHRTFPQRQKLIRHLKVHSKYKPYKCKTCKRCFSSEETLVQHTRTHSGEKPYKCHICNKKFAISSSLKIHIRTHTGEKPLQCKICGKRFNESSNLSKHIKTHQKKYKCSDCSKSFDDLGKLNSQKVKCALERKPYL
# Experiment: PBM E-score (8-mer binding enrichment) (E-score (-0.5 to 0.5)); higher = stronger / more preferred TF binding; most listed sequences are background and not binding sites
# Conditions: protein concentration: 200 nM; construct: GST-full length
# Procedure, shortened: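 Bound GST-tagged yeast transcription factors, applied at about 100-200 nM to double-stranded universal all-10-mer Agilent arrays, were detected with fluorescent anti-GST. Scans were normalised with masliner. A modified Wilcoxon-Mann-Whitney statistic, the E-score, was assigned to each ungapped eight-base word pooled with its reverse complement by the Universal PBM Analysis Suite.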
row,Sequence,PBM E-score
1,AGCAATGC,-0.0926
2,AGATGGGA,-0.251
3,AGTCGATA,-0.109
4,ATAAGGCC,-0.115
5,ATTCCTAA,0.0801
6,CTCTGCAA,0.0741
7,GCGACTCC,-0.265
8,TGTCATAA,0.184
9,GATCAAAA,0.0234
10,CGACGTTC,-0.256
11,AAACGAAG,0.0582
12,GTGCGCCA,-0.175
13,GTAAAAAA,0.313
14,TGGCTAAA,0.0808
15,AAATTCAC,-0.0619
16,AGTTCGAG,0.0375
17,GGCTAAAC,-0.0561
18,TGGTTGAA,-0.00067
19,GATAAATA,0.172
20,ATGATCCC,-0.0993
21,CACCGAAG,0.119
22,AACGTCAC,-0.109
23,GGATTATA,-0.059
24,GGGCGCAA,-0.0239
25,CGGAGCAC,-0.215

row,Sequence,PBM E-score
1,ATCCTACA,-0.0985
2,CGCAAGGC,-0.144
3,ATCATGCG,-0.0906
4,CGCGGGTC,0.25
5,CGTAACAG,-0.0999
6,ACGGGGAG,-0.206
7,ATTCAAAG,0.11
8,CCTTAGTA,0.0285
9,CAACGACA,-0.0731
10,AACTCCGC,-0.158
11,CAGACCTA,-0.0315
12,CAAAAACG,0.102
13,CTCGAAAA,0.144
14,CGGGGGCA,-0.0833
15,CAACCAAG,0.198
16,CGCTCATA,-0.0445
17,AGATACCC,0.325
18,AAGCCCGG,-0.295
19,AGTAACAG,0.0886
20,GACGAATC,-0.0909
21,GAACGATA,-0.00592
22,ACATGAGC,-0.288
23,ACCTCTGG,0.237
24,CAGACCCC,-0.0477
25,AAACCCTA,0.423

row,Sequence,PBM E-score
1,CCCCAGGG,0.319
2,TAGAGAGA,-0.0661
3,GTGATAAC,0.251
4,AGAGATGG,-0.0367
5,ACAAATCA,0.106
6,GGATCACA,-0.0629
7,CACCGCCA,-0.0283
8,CAATTGCC,-0.229
9,GCGTCGCC,-0.162
10,CGGTTCTA,0.0975
11,ATGCCCAC,-0.0481
12,CTCCAACC,0.0771
13,CTCGGTGC,-0.057
14,AAATTTAC,0.145
15,GAAAAACC,0.247
16,CGCACTGC,0.0263
17,ACGCAGGG,0.103
18,CGTTTAAG,-0.127
19,AAGCGGGG,-0.193
20,AGCTCAGC,-0.155
21,AACCATCG,0.224
22,CTCACGGC,-0.0638
23,ATTGTACC,0.157
24,CACAGCTG,-0.0441
25,GGTACCGA,0.239

row,Sequence,PBM E-score
1,TACGCCGA,-0.193
2,AAATAGGG,0.141
3,GGCACTTA,-0.036
4,CAGTTAGG,-0.0141
5,AGTCTTAG,-0.182
6,ACCTTGAG,0.354
7,GAACAGTA,0.00581
8,GGGTAAAC,0.194
9,CAGAATGG,-0.0394
10,ACCAGGGT,0.358
11,CCGGCCCC,-0.13
12,GTTATACA,0.269
13,AACTGTAC,-0.0743
14,GTGAATCA,-0.103
15,AGACGTCT,-0.266
16,AAATGTGT,0.191
17,AGCGAATA,-0.154
18,CTGATGTA,-0.0474
19,TCAATGCA,-0.197
20,ACGGGTAG,0.255
21,CGACAGGC,-0.313
22,ACCTCCAG,0.0626
23,AAGCTATC,-0.13
24,AAAAGCGT,-0.06
25,CAGGAACG,-0.141

row,Sequence,PBM E-score
1,ATGTACGA,0.0667
2,GTAATTCA,0.171
3,GCCATGAC,-0.0112
4,CTGAGAGA,-0.102
5,ATCAGTGC,-0.107
6,GTAACCGA,0.346
7,ATGAAGTG,-0.156
8,CCACAGCA,-0.161
9,ACCGCAAT,0.319
10,CATCTTGC,-0.0824
11,AACACGCG,0.126
12,AGCGTAAA,-0.0342
13,CAAAAATC,-0.0217
14,ATGCTAAA,0.105
15,GGTGCGTA,0.0446
16,AAAATTTG,0.0854
17,AGCGCTCC,-0.271
18,GGAGCACA,-0.127
19,ATGGTGTA,0.104
20,GCGGATCA,-0.0752
21,TCTCACCA,-0.0503
22,CATATGCC,-0.052
23,ATTTGCCA,-0.00495
24,AGATAACT,-0.118
25,CGATGGGA,-0.201

row,Sequence,PBM E-score
1,GTGTCACA,0.0541
2,CCAGGGAA,-0.139
3,ACGTTACC,0.172
4,TGGGTTAA,0.359
5,ACACCTGG,-0.163
6,GAAGGTCC,-0.144
7,GGTCAATA,0.148
8,ATGGTTCG,0.0884
9,GCAGCAGC,-0.173
10,ACGACGCG,0.0934
11,ACGTACAG,-0.237
12,CACTGTGG,-0.176
13,TAGACTAA,-0.0299
14,AGGAGATG,-0.282
15,GCACATCA,-0.178
16,CGTTGATA,0.0582
17,GGGCCAAA,-0.0875
18,ATTCAATC,0.014
19,GTTCCAGA,0.1
20,GAGTTGGC,-0.232
21,AGTAAGGC,-0.254
22,CCGGAAGA,0.0742
23,AACCGACG,0.0424
24,AAACCATC,0.128
25,CCCCAATA,0.132

row,Sequence,PBM E-score
1,AGTTCTAA,-0.0583
2,CATACGCC,-0.299
3,ACCACGCA,0.135
4,AGTGACTC,0.0217
5,CTAGTGTC,0.0384
6,GTTCTCGA,0.0158
7,AGGACGTG,-0.264
8,AATTAATT,0.0914
9,ATCCGGGC,-0.0217
10,AATCCCCG,-0.0999
11,GTTCGATA,0.0733
12,TAAGTCGA,-0.0631
13,AGGCCCCC,-0.281
14,ACGTGAGA,0.0217
15,CTGGATAA,0.0167
16,GCTTTTTA,0.153
17,ACTTATGA,0.0246
18,AGAGAGTG,-0.212
19,ACCTTGGA,0.195
20,AAAGGTCC,0.245
21,AGCGACTA,0.0332
22,CTCGCGCC,-0.018
23,CAAGGCTA,-0.0665
24,ACATCCTA,-0.167
25,ACTCTTTA,-0.0775

row,Sequence,PBM E-score
1,AATGCGTA,-0.0664
2,GTGCGTGA,0.0239
3,AGTATAGG,0.0506
4,CTAATAAC,0.223
5,CCAGCGAC,-0.082
6,AAAAGACC,0.17
7,CATGCAAC,0.0184
8,CTTGCATC,-0.203
9,ATGCCGCC,-0.293
10,CTTGCGAA,0.139
11,ACTGCGTC,-0.214
12,ACTCGTTC,0.0381
13,ATCGTCGG,-0.0412
14,GAACGCAA,0.113
15,ACGGAAAT,0.123
16,AGGTTAGG,0.348
17,AACAAAAA,0.297
18,ACCCAGGT,0.239
19,TAGCACCA,0.0858
20,GCGAGTCA,0.023
21,CGCAACTC,0.151
22,AAGGGCCC,-0.00803
23,ATCACGCG,0.0944
24,ATACTAGG,0.0465
25,AAAAGGTG,0.173

row,Sequence,PBM E-score
1,GGGCAACA,-0.206
2,CACAAGCA,0.0117
3,AACTGAGA,-0.0795
4,ATTCAAGG,0.182
5,GATGATAA,0.134
6,CCCAATCG,-0.0247
7,ACCAGCGT,-0.0993
8,ATCATGGG,0.147
9,AGCGTACA,-0.109
10,AGGCCCGG,-0.136
11,CCCCCGAG,-0.222
12,AGAAGTTA,0.0556
13,CTCAAATA,-0.174
14,GGTAAGAC,0.102
15,CTTATACA,0.0505
16,AGCTGGAT,-0.0594
17,CTGATTTA,0.0125
18,ACAAGGCC,-0.152
19,ACCAATCC,0.0671
